{"source": "paper PMC3681933", "binders": {"B1": {"name": "Msb1 tagged with three copies of HA at its N-terminus, P21339 1-1137 (protein)", "chain": "MNDMAKPLPTPPTAEIRKSRSNSPKKAQKTNLSPNKNQNNEKNVPRSNGRTKNEHNSMDDEEFEFFHQFSREKVKGVIHVITAELKEKGPDVEFLMIPFRPEQTNDKLLTLLNQLFPLGNGQPVNEKKQLRIVSKADVWTLFQCLKYIWCRLPNSEIIGWKSYLEFKFREEDKKFPRKSFLEIMPQCLASPNHASIVYDFFDLIISISSNSRVNKMSARKISKMCAIWAFSKQIPNSDIQDYDFESAAMKSFAPNNSIQDGLDQWIPASDAMFHLLLAFLRSFVPQDLESAKLPRTLKSLLFNNQYPPRKSTAYTSETILTIPLVTLKTDVFSRKPWQLLERCNDLLDFSDHDAFEAREDYALLKSLFRKKNTVEGISRKMSQESRRLMKAMSTKHSTFQPGWAPRECIENISHLKECIEVKRLDIDDYFIWTWLSSLSFEQTSEKKKIFGRSIILEFEFDGFKKWVVFQECDITLDYNKKGQLKKKTSAQSPTTEKELPPDDFELEDPPLSKSPTLSQTYKKFQAEVPQQSTVRRDSAPDNQGIYHTVISKNALTKNKHNVNLHSFEHKISKWNPLNNLRKKSGSNSSSSSFEEKSKDAPIREEYHTNKNHKSKKEERVLSQFSTLNPDEYQLPVIETGSSNFKIEIPELMYEHDDDDSDKLKNSQKRATDSAIEELNGMVEEMMINEPDDVKISITEAETFESLTKFDQYKPSNITDDDLQSSHSSAVHSLKLSTNTNDSCADSSKYTADRKLAEPRKISEESKVNDDSSSYYSPNINNLPASRMPSQPTYSNSDSKKAFTNESRLNVLQGAVSPSQQVTPKPYKNAPGDCVSPVQQKYYQNDRRNEMSPASAPVPPSAYSPARSPQFSTNSAGFKQNTINVPVGYNDPAHVLANQPHMTYRDQHNYPSHQQKQRPFQNNIVPPELKSRNQRADASPIPQHMVPVKQGVPNLPSNVPLYQQMERMNPNHQHPVNTYKVTQPPYHNNTTNAYGNSRAGNAHMLDGKWSNNPPQMVPKGVRPNQYPQQHVNRYSPQAQPVVPAEYYNGPPPMRAPPMMSHMVPAQEPIRYTAGANRRSFPQGMQQNAYSVPAQPMGAVNSEFYLPEAPQGNKLHGNINKRQERKKLYDNIRSGNFGI"}}, "biological_target": "T1, GST-Bem1 (S. cerevisiae), P29366", "T1 chain": "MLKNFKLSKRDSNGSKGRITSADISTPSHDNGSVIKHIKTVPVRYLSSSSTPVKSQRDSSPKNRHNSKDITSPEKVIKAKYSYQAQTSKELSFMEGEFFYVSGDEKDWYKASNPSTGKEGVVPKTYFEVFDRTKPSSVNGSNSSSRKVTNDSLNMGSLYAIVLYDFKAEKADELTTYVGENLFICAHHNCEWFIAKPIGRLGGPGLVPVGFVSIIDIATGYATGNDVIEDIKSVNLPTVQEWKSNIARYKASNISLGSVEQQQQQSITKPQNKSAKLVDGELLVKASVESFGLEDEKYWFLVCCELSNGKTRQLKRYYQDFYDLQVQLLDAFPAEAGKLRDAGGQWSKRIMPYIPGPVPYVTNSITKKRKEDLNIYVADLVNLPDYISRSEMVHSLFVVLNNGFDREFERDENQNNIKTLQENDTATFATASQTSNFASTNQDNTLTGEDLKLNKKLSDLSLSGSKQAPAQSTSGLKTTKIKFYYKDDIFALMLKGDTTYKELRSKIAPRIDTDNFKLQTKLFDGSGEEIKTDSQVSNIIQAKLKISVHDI", "experiment": "pull-down; GST or GST fusions induced with 2% galactose for 4 h in yeast co-expressing 3HA-Msb1 (strains YEF473A wild type or YEF1395 msb1Δ, endogenous BOI1 and BOI2 present); glutathione-Sepharose beads from Triton X-100-solubilized cell lysates; anti-HA blot", "conditions": "remark: other sources report otherwise", "note": "These are yes or no findings as the source states them, for the method shown. Binding seen in cells or lysates may run through a third protein. Tags and fused reporters may be left off the sequences shown."}
{"binder": "B1", "values": [{"measurement": "binding", "value": "no binding"}]}
